Data reported in article PMC7360740.
No constants are given. Whether binding was seen depends on the method and setting. For some of these results: In cells and extracts the contact can be indirect. Some binding calls cover weakened binding; strength is not graded here.

Amino acid sequences for entries named in this document (tags omitted). A change or cut given only in a name is not applied to a line headed by its entry.
UniProt Q9UQB8: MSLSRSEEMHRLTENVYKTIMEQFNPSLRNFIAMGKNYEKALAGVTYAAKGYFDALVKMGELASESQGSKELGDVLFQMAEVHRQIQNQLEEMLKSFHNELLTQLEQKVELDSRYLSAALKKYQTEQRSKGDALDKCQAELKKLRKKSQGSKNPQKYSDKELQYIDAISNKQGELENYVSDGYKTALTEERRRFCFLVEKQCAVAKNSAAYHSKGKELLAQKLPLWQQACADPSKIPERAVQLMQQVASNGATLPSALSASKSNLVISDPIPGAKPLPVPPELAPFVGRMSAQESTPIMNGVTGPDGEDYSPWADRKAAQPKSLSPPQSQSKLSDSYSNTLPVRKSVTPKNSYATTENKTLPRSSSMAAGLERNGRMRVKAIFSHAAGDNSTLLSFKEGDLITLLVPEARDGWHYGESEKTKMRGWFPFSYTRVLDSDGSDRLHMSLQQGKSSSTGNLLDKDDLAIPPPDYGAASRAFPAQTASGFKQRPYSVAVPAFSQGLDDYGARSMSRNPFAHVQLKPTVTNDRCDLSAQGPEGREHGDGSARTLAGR
UniProt Q15286: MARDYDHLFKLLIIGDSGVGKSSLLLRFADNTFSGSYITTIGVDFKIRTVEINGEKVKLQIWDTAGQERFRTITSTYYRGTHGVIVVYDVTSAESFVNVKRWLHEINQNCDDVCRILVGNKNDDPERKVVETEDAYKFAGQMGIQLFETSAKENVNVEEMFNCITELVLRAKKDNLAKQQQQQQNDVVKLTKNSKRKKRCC

Experiments:
Flag-IRSp53 [1] = target: Flag-IRSp53 (UniProt Q9UQB8); assay: condition: only cells treated with growth factors after serum starvation; co-IP; as a1, but the serum-starved HeLa cells were treated with growth factors before lysis
Flag-IRSp53 [2] = target: Flag-IRSp53 (UniProt Q9UQB8); assay: co-IP; lysates (1 mg) of HeLa cells transfected with GFP-RAB35 and Flag-IRSp53, serum starved overnight, not treated with growth factors; anti-FLAG M2 affinity gel, IP buffer (40 mM Hepes pH7.5, 150 mM NaCl, 10 mM MgCl2, 0.3% CHAPS), 4 °C; immunoblot
[3] = target: recombinant purified His-IRSp53 (UniProt Q9UQB8); assay: far-Western, overlay or dot blot; equal amounts (50 nM) of IRSp53 full-length WT, fragments and mutant spotted onto nitrocellulose, incubated with GST-RAB35S22N (50 nM); anti-GST immunoblot; both purified
GST-RAB35WT = GST-RAB35WT (UniProt Q15286); assay: pull-down + far-Western, overlay or dot blot; as a3, with 2.5 µM GST-RAB35WT loaded with GDP (1 mM, 1 h 37 °C); both purified
GST-RAB35S22N [4] = target: GST-RAB35S22N (UniProt Q15286); assay: far-Western, overlay or dot blot; indicated amounts of GST-RAB35S22N spotted onto nitrocellulose, incubated with 30 nM IRSp53 WT or IRSp53 I-BAR*; anti-IRSp53 immunoblot; both purified
GST-RAB35S22N [5] = target: GST-RAB35S22N (UniProt Q15286); assay: pull-down + far-Western, overlay or dot blot; pull-down: 2.5 µM GST-RAB35S22N or GST-RAB35Q67L on beads with 1 µM His-IRSp53 in IVB buffer (50 mM Tris pH 7.5, 100 mM NaCl, 10 mM MgCl2, 0.1% Triton X-100, 0.05% BSA), 1 h at 4 °C; overlay on nitrocellulose, set-up in Supplementary Fig. 4D, E not …; both purified

For GFP-RAB35 (from UniProt Q15286 1-201), the binding (Flag-IRSp53 [1]) was “no binding” and the binding (Flag-IRSp53 [2]) was “binds”.

In the case of “GST-RAB35S22N (from UniProt Q15286 1-201)”, the binding [3] is reported as “binds”.

For “recombinant purified His-IRSp53 (from UniProt Q9UQB8 1-552)”, the binding (GST-RAB35WT) was “binds weakly”, the binding (GST-RAB35S22N [4]) was “binds” and the binding (GST-RAB35S22N [5]) was “binds weakly”.

With “recombinant purified IRSp53 I-BAR* (K142E, K143E, K146E, K147E) (from UniProt Q9UQB8 1-552)” the binding (GST-RAB35S22N [4]) was “no binding (tested: 30 nM)”.
